Measurements: PubChem BioAssay AID720709 (National Center for Advancing Translational Sciences (NCATS), 2013)
Out of some 360,000 compounds screened, about 520 (0.14%) were called active. The inconclusive results got no clear call from the source; some entries with a clear call stand among them for comparison. Calls come from the whole dose curve; as a rule, active = well fitted inhibition curve with a large enough effect; inconclusive = small, poorly fitted or top-dose-only effect; inactive = no such curve, though single readings can be large or run the other way. Potencies of inconclusive entries are left out as doubtful fits.

What follows are compounds tested against Rap guanine nucleotide exchange factor 3 (Homo sapiens) (UniProt O95398) (assay: qHTS for Antagonist of cAMP-regulated guanine nucleotide exchange factor 3 (EPAC1): primary screen). Details: EPAC1 GEF assay, Rap1b-BODIPY-GDP exchange fluorescence; activity change, negative = inhibition: at 115 µM (top of the series).
Note: nearly all actives have a fitted effect of over 50% in size.
Potency is the fitted concentration of half-maximal effect; tags give direction and shape of the fitted curve.
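Throughout, for activity change, negative = inhibition: plate controls were vehicle for no effect and positive control for full effect.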

UniProt O95398, sequence (O95398 whole entry, looked up): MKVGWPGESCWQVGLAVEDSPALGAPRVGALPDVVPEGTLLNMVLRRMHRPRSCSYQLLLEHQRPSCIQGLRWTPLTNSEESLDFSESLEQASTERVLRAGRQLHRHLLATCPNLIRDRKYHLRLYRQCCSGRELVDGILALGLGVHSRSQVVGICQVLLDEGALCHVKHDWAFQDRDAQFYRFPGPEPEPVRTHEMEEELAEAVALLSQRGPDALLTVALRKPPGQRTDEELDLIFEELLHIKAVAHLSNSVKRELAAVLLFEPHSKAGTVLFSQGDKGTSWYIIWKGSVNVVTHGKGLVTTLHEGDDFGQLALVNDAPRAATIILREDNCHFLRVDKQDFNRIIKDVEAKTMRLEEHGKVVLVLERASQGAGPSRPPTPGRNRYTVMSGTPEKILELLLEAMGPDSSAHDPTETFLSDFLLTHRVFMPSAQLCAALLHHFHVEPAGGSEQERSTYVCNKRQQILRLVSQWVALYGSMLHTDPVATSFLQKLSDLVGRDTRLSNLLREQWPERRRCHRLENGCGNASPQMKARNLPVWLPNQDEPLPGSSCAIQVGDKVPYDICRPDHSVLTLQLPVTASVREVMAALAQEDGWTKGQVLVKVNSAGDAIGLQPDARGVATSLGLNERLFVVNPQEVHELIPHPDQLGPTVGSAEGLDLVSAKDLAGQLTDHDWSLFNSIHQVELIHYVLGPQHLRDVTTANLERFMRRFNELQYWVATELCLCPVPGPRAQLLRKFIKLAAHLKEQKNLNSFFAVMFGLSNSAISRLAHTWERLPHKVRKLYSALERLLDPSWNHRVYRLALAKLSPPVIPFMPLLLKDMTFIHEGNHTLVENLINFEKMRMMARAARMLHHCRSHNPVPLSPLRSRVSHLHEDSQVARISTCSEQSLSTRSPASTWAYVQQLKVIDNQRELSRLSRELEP

Row | Compound | Potency | activity change, negative = inhibition
1 | O=C(Nc1nnc(SCc2ccc(Cl)cc2Cl)s1)C1COc2ccccc2O1 (stereo not given) | inconclusive [inhibitor, single point] | –
2 | COCCCNC(=O)c1cccc2c(-c3ccc(O)c(OC)c3)coc12 | inconclusive [inhibitor, single point] | –
3 | CN(Cc1cccs1)C(=O)C1CC(=O)N(Cc2ccccc2)C1 (stereo not given) | – | inactive: 8.37%
4 | Cc1cccc(/C(N)=N/OC(=O)Cc2cccc3ccccc23)c1 | inconclusive [inhibitor, single point] | –
5 | Cc1ccc(N2C(=O)c3cccc4c(N5CCN(C)CC5)ccc(c34)C2=O)c2cccnc12 | – | inactive: 5.02%
6 | O=C(C1=NN(c2ccccc2)C2C(=O)N(c3ccccc3)C(=O)C12)c1ccccc1 (stereo not given) | inconclusive [inhibitor, single point] | –
7 | O=C(N/N=C/C=C/c1ccc([N+](=O)[O-])cc1)c1cccs1 | – | inactive: -9.44%
8 | CC(C)(C)c1cc(C(c2cccnc2)N2CCN(CCO)CC2)cc(C(C)(C)C)c1O (stereo not given) | inconclusive [inhibitor, partial curve] | –
9 | O=c1c2ccccc2sn1-c1ccc(S(=O)(=O)N2CCCC2)cc1 | – | inactive: 3.46%
10 | Cc1cccc(N2CCN(C3C(=O)Nc4ccccc4-n4nnnc43)CC2)c1C (stereo not given) | – | inactive: -3.07%
11 | COc1ccc(C2CC(c3cccs3)=NN2C(=O)CCCC(=O)O)cc1OC (stereo not given) | – | inactive: -13.6%
12 | Oc1ccccc1OCCOc1ccccc1OCCOc1ccccc1O | inconclusive [inhibitor, partial curve] | –
13 | CC(C)(C)c1cc2ncnc(N3CCCCC3)c2s1 | inconclusive [inhibitor, full curve, poor fit] | –
14 | COc1ccc(Cl)c2sc(N(CCN(C)C)C(=O)CCS(=O)(=O)c3ccc(C)cc3)nc12 | – | inactive: -7.58%
15 | Cc1cc(C)nc(SCc2n[nH]c(=S)n2C)n1 | inconclusive [inhibitor, partial curve] | –
16 | Cc1nn(Cc2ccccc2Cl)c(C)c1C(=O)NCCN1C(=O)S/C(=C\c2ccccc2)C1=O | inconclusive [inhibitor, single point] | –
17 | CCOC(=O)C1CCN(C(=O)c2ccccc2N(C)S(=O)(=O)c2ccccc2)CC1 | inconclusive [inhibitor, partial curve] | –
18 | COc1ccc(-c2nnc(SCc3cccc(C)c3)n2N)cc1 | inconclusive [inhibitor, full curve, poor fit] | –
19 | Cc1ccc(NS(=O)(=O)c2ccc3c(c2)C(=O)c2ccccc2C3=O)c(C)c1 | – | inactive: -12.3%
20 | COc1ccc(CCNC(=O)c2ccc3nc(-c4ccco4)c(-c4ccco4)nc3c2)cc1OC | inconclusive [inhibitor, single point] | –
